According to PubChem BioAssay AID743279 (National Center for Advancing Translational Sciences (NCATS), 2014):
About 17,000 (4.7%) of roughly 360,000 compounds were called active. Inconclusive means that the source gave no clear call. Such entries were picked first, then a sample of the others. Rule as the data show it: active = activity change below about -50%; inconclusive = mostly about -30% to -49%; inactive = weaker than that.

test: qHTS for Inhibitors of Inflammasome Signaling: IL-1-beta AlphaLISA Primary Screen; details: THP-1 LPS/ATP IL-1B secretion, 16 h; at 57.5 µM, active compounds read low
Procedure, shortened: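 Secreted IL-1B measured by AlphaLISA bead assay after 16 h compound exposure of THP-1 cells; compounds (final up to 57.5 uM) added 1 h before LPS (250 ng/mL) and ATP (1.25 mM) stimulation; lower signal means less secretion.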
% is scaled to controls: 0 for no effect and ±100 for the full control effect.

Activity change, inactive:
Cc1nc2sc(C(c3ccco3)N3CCN(c4ccccc4F)CC3)c(O)n2n1 (centres undefined) 25.5%, Cc1ccccc1OCCOC(=O)c1c(-c2ccccc2)noc1C 64%, COc1cc(-c2cc3nc(NC4CCCCC4)ccn3n2)cc(OC)c1OC 8.67%, CCc1cccc(C)c1NC(=O)COC(=O)c1cc([N+](=O)[O-])ccc1N1CCOCC1 -3.45%, Cc1ccc([N+](=O)[O-])cc1S(=O)(=O)Nc1cccc(S(=O)(=O)NC2=NCCC2)c1 9.04%, Cn1c(=O)c2c(nc(N/N=C/c3ccncc3)n2Cc2ccccc2)n(C)c1=O 76%

Activity change, active:
CC1CC(C)CN(C(=O)c2cc3cc(Br)cc(Br)c3o2)C1 (centres undefined) -69.6%, Cc1cccc(Cn2ncc(Cl)c(Cl)c2=O)c1 -102%, Oc1ccc2ccccc2c1N=Nc1nccs1 -98.3%, CN(c1ccccc1)S(=O)(=O)c1cccc(NC(=O)c2ccc3ncsc3c2)c1 -69%

Activity change, inconclusive:
COc1cc(/C=C/c2ccc3cccc(OC)c3n2)c(O)c([N+](=O)[O-])c1 -37.6%, CCOC(=O)N1CCN(C(=O)c2ccc(-n3c(C)ccc3C)cc2)CC1 -47.8%, COc1cc(CCc2ccc3c(c2)OCO3)oc(=O)c1 -30.3%, CC(CCc1ccccc1)N(C)CC(O)c1cccc([N+](=O)[O-])c1 (centres undefined) -37%, COc1ccc(/C=C/CN2CCC(C(=O)NC(c3ccc(F)cc3)c3ccc4ccccc4n3)CC2)cc1 (centres undefined) -41.4%, COC(=O)c1cccc(NC(=O)/C=C/c2ccc3c(c2)OCO3)c1 -36.9%, COc1ccc(N2CCN(Cc3nc(N)nc(Nc4ccccc4OC)n3)CC2)cc1 -31.6%, O=C(CC(C(=O)c1ccccc1)c1ccccc1)c1ccccc1 (centres undefined) -35.2%, CCc1ccc(-c2nc(CSCC(=O)N3CCN(c4ccccn4)CC3)c(C)o2)cc1 -35.4%, CCN(C=NC1=NN(c2cccc(C(F)(F)F)c2)CC1)CC -34.5%, CCCCNC(=S)N1CCN(c2ccc(C(C)=O)cc2)CC1 -32.8%, COC(=O)Nc1csc2c1NC(=O)CCCC2 -43.6%, C[C@@H]1CN([C@@H](C)CO)C(=O)c2cc(Br)cnc2O[C@@H]1CN(C)C(=O)Nc1ccc(F)cc1 -37.6%, COc1cc(C)cc2oc(=O)c(CC(=O)N3CCN(C(=O)C4COc5ccccc5O4)CC3)c(C)c12 (centres undefined) -32.7%
